Laboratory results reported in paper PMC6662825.
Results are given in words; binding and its absence hold for the method and conditions named. For part of these data: Binding seen in cells or lysates may run through a third protein. Some entries that bind do so weakly or less than the wild type. Sequences can lack the tags named with a protein.

T1: MTR4-LAP (human) (UniProt P42285)
T1 sequence: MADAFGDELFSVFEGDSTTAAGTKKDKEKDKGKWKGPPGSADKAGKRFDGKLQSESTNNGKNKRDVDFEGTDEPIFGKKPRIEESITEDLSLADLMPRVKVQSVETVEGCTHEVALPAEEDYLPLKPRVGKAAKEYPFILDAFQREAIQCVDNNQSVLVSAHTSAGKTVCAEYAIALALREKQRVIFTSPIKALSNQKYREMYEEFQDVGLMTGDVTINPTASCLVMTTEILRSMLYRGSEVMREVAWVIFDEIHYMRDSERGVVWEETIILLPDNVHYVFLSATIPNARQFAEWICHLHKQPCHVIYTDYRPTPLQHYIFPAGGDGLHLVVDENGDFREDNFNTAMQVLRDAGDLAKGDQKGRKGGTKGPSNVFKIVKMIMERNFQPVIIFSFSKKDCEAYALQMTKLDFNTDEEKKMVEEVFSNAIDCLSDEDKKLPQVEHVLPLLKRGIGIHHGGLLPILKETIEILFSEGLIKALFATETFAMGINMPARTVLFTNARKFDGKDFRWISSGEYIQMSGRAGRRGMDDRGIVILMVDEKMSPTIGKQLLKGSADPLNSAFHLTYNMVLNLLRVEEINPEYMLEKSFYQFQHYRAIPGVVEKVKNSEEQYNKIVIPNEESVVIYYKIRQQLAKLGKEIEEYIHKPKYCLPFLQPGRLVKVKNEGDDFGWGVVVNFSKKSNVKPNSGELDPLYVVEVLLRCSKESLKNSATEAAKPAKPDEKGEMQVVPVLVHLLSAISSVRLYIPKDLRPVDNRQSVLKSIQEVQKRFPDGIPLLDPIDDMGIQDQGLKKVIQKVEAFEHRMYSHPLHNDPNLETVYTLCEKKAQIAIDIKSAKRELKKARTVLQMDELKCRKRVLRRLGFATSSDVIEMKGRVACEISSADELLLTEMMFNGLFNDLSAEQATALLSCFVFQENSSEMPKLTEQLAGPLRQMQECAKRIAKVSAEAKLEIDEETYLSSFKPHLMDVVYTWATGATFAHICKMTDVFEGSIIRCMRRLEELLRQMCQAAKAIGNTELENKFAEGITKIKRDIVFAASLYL

T2: GST-MTR4-∆N∆arch (human) (UniProt P42285)
T2 sequence: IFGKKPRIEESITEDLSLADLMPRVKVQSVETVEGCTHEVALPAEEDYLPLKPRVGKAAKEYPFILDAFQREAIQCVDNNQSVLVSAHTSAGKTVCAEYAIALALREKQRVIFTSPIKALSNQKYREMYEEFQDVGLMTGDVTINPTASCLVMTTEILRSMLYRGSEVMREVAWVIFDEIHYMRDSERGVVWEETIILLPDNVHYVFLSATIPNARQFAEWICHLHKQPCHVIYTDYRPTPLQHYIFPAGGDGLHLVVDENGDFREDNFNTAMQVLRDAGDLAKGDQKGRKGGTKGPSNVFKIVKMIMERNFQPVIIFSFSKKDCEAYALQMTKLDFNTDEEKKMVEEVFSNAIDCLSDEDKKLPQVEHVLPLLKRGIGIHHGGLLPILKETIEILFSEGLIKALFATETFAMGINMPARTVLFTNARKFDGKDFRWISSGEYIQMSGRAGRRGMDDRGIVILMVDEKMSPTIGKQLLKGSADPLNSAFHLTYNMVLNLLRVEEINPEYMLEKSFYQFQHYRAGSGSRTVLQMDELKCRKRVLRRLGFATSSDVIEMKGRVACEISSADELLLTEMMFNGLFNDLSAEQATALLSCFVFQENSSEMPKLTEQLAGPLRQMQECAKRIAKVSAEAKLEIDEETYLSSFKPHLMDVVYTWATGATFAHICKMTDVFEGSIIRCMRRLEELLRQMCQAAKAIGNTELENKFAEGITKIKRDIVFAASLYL


Key:
[1] = target: T1, MTR4-LAP (human); assay: co-IP; HeLa Kyoto cells stably expressing MTR4-LAP or RBM7-LAP, transiently transfected with FLAG-tagged NVL or ZCCHC8 constructs; lysate on beads with a llama anti-GFP antibody; 150 mM NaCl, 20 mM HEPES pH 7.4, 0.5% Triton X-100; Benzonase treatment on beads; western blot
[2] = target: T2, GST-MTR4-∆N∆arch (human); assay: condition: 8 μM MBP-ZCCHC8 constructs (methods, told for 2 μM GST-MTR4∆N); pull-down; GST-tagged MTR4 constructs as bait, MBP-ZCCHC8 constructs as prey, glutathione sepharose; 2 μM GST-MTR4∆N with 8 μM MBP-ZCCHC8 constructs; 50 mM Hepes pH 7.5, 150 mM NaCl, 5% glycerol, 0.05% NP40, 1 mM DTT, 30 min at 4 °C; SDS-PAGE, Coomassie; both purified
[3] = target: T2, GST-MTR4-∆N∆arch (human); assay: condition: 20 μM Trx-NVL constructs (methods, told for 10 μM GST-MTR4∆N); pull-down; GST-tagged MTR4 constructs as bait, Trx-NVL constructs as prey, glutathione sepharose; 10 μM GST-MTR4∆N with 20 μM Trx-NVL constructs; 50 mM Hepes pH 7.5, 150 mM NaCl, 5% glycerol, 0.05% NP40, 1 mM DTT, 30 min at 4 °C; SDS-PAGE, Coomassie; both purified

| binding [1] | binding [3] | Binder | further results |
| --- | --- | --- | --- |
|  | no binding | KDSEGGWFIDKTPSVKKDSFFLDLSCEKSNPKKPITEIQDSKDSSLLESD (domain or fragment, UniProt O15381 167-216) [Trx-NVL^167–216] |  |
|  | no binding | Trx-NVL^1–266 (domain or fragment, UniProt O15381 1-266) MKPRPAGFVDNKLKQRVIQYLTSNKCGKYVDIGVLASDLQRVYSIDYGRRKRNAFRIQVEKVFSIISSEKELKNLTELEDEHLAKRARQGEEDNEYTESYSDDDSSMEDYPDPQSANHMNSSLLSLYRKGNPDSVSNTPEMEQRETTSSTPRISSKTGSIPLKTPAKDSEGGWFIDKTPSVKKDSFFLDLSCEKSNPKKPITEIQDSKDSSLLESDMKRKGKLKNKGSKRKKEDLQEVDGEIEAVLQKKAKARGLEFQISNVKFED |  |

Second part, the binder before the results:

| Binder | binding [1] | binding [3] | further results |
| --- | --- | --- | --- |
| FLAG-tagged full-length ZCCHC8, wild type (protein, UniProt Q6NZY4 1-707) MAAEVYFGDLELFEPFDHPEESIPKPVHTRFKDDDGDEEDENGVGDAELRERLRQCEETIEQLRAENQELKRKLNILTRPSGILVNDTKLDGPILQILFMNNAISKQYHQEIEEFVSNLVKRFEEQQKNDVEKTSFNLLPQPSSIVLEEDHKVEESCAIKNNKEAFSVVGSVLYFTNFCLDKLGQPLLNENPQLSEGWEIPKYHQVFSHIVSLEGQEIQVKAKRPKPHCFNCGSEEHQMKDCPMPRNAARISEKRKEYMDACGEANNQNFQQRYHAEEVEERFGRFKPGVISEELQDALGVTDKSLPPFIYRMRQLGYPPGWLKEAELENSGLALYDGKDGTDGETEVGEIQQNKSVTYDLSKLVNYPGFNISTPRGIPDEWRIFGSIPMQACQQKDVFANYLTSNFQAPGVKSGNKRSSSHSSPGSPKKQKNESNSAGSPADMELDSDMEVPHGSQSSESFQFQPPLPPDTPPLPRGTPPPVFTPPLPKGTPPLTPSDSPQTRTASGAVDEDALTLEELEEQQRRIWAALEQAESVNSDSDVPVDTPLTGNSVASSPCPNELDLPVPEGKTSEKQTLDEPEVPEIFTKKSEAGHASSPDSEVTSLCQKEKAELAPVNTEGALLDNGSVVPNCDISNGGSQKLFPADTSPSTATKIHSPIPDMSKFATGITPFEFENMAESTGMYLRIRSLLKNSPRNQQKNKKASE | binds |  |  |
| FLAG-tagged full-length ZCCHC8 I112R/F115R (protein, UniProt Q6NZY4 1-707) MAAEVYFGDLELFEPFDHPEESIPKPVHTRFKDDDGDEEDENGVGDAELRERLRQCEETIEQLRAENQELKRKLNILTRPSGILVNDTKLDGPILQILFMNNAISKQYHQEREERVSNLVKRFEEQQKNDVEKTSFNLLPQPSSIVLEEDHKVEESCAIKNNKEAFSVVGSVLYFTNFCLDKLGQPLLNENPQLSEGWEIPKYHQVFSHIVSLEGQEIQVKAKRPKPHCFNCGSEEHQMKDCPMPRNAARISEKRKEYMDACGEANNQNFQQRYHAEEVEERFGRFKPGVISEELQDALGVTDKSLPPFIYRMRQLGYPPGWLKEAELENSGLALYDGKDGTDGETEVGEIQQNKSVTYDLSKLVNYPGFNISTPRGIPDEWRIFGSIPMQACQQKDVFANYLTSNFQAPGVKSGNKRSSSHSSPGSPKKQKNESNSAGSPADMELDSDMEVPHGSQSSESFQFQPPLPPDTPPLPRGTPPPVFTPPLPKGTPPLTPSDSPQTRTASGAVDEDALTLEELEEQQRRIWAALEQAESVNSDSDVPVDTPLTGNSVASSPCPNELDLPVPEGKTSEKQTLDEPEVPEIFTKKSEAGHASSPDSEVTSLCQKEKAELAPVNTEGALLDNGSVVPNCDISNGGSQKLFPADTSPSTATKIHSPIPDMSKFATGITPFEFENMAESTGMYLRIRSLLKNSPRNQQKNKKASE | binds |  |  |
| FLAG-tagged full-length NVL, wild type (protein, UniProt O15381 1-856) MKPRPAGFVDNKLKQRVIQYLTSNKCGKYVDIGVLASDLQRVYSIDYGRRKRNAFRIQVEKVFSIISSEKELKNLTELEDEHLAKRARQGEEDNEYTESYSDDDSSMEDYPDPQSANHMNSSLLSLYRKGNPDSVSNTPEMEQRETTSSTPRISSKTGSIPLKTPAKDSEGGWFIDKTPSVKKDSFFLDLSCEKSNPKKPITEIQDSKDSSLLESDMKRKGKLKNKGSKRKKEDLQEVDGEIEAVLQKKAKARGLEFQISNVKFEDVGGNDMTLKEVCKMLIHMRHPEVYHHLGVVPPRGVLLHGPPGCGKTLLAHAIAGELDLPILKVAAPEIVSGVSGESEQKLRELFEQAVSNAPCIIFIDEIDAITPKREVASKDMERRIVAQLLTCMDDLNNVAATARVLVIGATNRPDSLDPALRRAGRFDREICLGIPDEASRERILQTLCRKLRLPQAFDFCHLAHLTPGFVGADLMALCREAAMCAVNRVLMKLQEQQKKNPEMEDLPSKGVQEERLGTEPTSETQDELQRLLGLLRDQDPLSEEQMQGLCIELNDFIVALSSVQPSAKREGFVTVPNVTWADIGALEDIREELTMAILAPVRNPDQFKALGLVTPAGVLLAGPPGCGKTLLAKAVANESGLNFISVKGPELLNMYVGESERAVRQVFQRAKNSAPCVIFFDEVDALCPRRSDRETGASVRVVNQLLTEMDGLEARQQVFIMAATNRPDIIDPAILRPGRLDKTLFVGLPPPADRLAILKTITKNGTKPPLDADVNLEAIAGDLRCDCYTGADLSALVREASICALRQEMARQKSGNEKGELKVSHKHFEEAFKKVRSSISKKDQIMYERLQESLSR | binds |  |  |
| MBP-ZCCHC8^91–211 (domain or fragment, UniProt Q6NZY4 91-211) DGPILQILFMNNAISKQYHQEIEEFVSNLVKRFEEQQKNDVEKTSFNLLPQPSSIVLEEDHKVEESCAIKNNKEAFSVVGSVLYFTNFCLDKLGQPLLNENPQLSEGWEIPKYHQVFSHIV |  |  | binding [2]: no binding |
